Measured values: PubChem BioAssay AID1461 (National Center for Advancing Translational Sciences (NCATS), 2008)
The whole screen tested about 220,000 compounds, of which about 2,300 (1%) were called active. Inconclusive means that the source gave no clear call. Such entries were picked first, then a sample of the others. Calls come from the whole dose curve; as a rule, active = well fitted inhibition curve with a large enough effect; inconclusive = small, poorly fitted or top-dose-only effect, or effect the other way; inactive = no such curve, though single readings can be large or run the other way. Potencies of inconclusive entries are left out as doubtful fits.

target: Neuropeptide S receptor (Homo sapiens) (UniProt Q6W5P4); assay: qHTS Assay for Antagonists of the Neuropeptide S Receptor: cAMP Signal Transduction; conditions: CHO-NPSR cells, cAMP TR-FRET, antagonist mode; activity change, negative = inhibition: at 38.3 µM (top of the series) unless noted; note: nearly all actives have a fitted effect of over 50% in size
% is set by controls: 0 for no effect and ±100 for the full control effect; potency is the fitted concentration of half-maximal effect; tags give direction and shape of the fitted curve.

UniProt Q6W5P4, sequence (Q6W5P4 whole entry, looked up): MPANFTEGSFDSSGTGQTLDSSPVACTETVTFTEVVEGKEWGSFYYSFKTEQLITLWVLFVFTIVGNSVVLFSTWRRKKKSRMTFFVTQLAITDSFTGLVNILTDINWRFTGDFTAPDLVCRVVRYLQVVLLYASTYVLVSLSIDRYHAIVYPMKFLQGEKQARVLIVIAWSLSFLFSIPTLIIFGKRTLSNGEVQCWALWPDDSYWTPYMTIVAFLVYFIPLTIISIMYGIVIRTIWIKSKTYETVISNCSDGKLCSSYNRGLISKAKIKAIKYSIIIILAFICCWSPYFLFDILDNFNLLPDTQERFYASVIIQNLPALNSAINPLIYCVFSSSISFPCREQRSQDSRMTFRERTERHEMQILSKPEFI

Question: For `COc1ccc(-c2nn(C)c(=O)c3ccccc23)cc1NC(=O)Cn1nc(-c2ccccc2)c2ccccc2c1=O`, which Potency is on record?
Answer: inconclusive [inhibitor, partial curve]

Question: `COc1ccc(C(CCNCc2ccc(OC(C)C)cc2)C(C)C)cc1` (centres undefined) was tested. Which Potency did it give?
Answer: inconclusive [activator, partial curve]

Question: For `Cc1nn(C(=O)c2cc3sccc3[nH]2)c(C)c1C`, which Potency is on record?
Answer: inconclusive [activator, full curve, poor fit]

Question: `CC(NC(=O)C1CCN(S(=O)(=O)c2cc([N+](=O)[O-])ccc2Cl)CC1)c1ccccc1` (centres undefined) was tested. Which “activity change, negative = inhibition” value did it give?
Answer: inactive: -3.03%

Question: How did the Potency turn out when `Cc1cccc(-c2noc(CN(C(=O)C34CC5CC(CC(C5)C3)C4)C(C)C)n2)c1` was run?
Answer: inconclusive [inhibitor, single point]

Question: How did the Potency turn out when `COc1ccc2cc(CN(Cc3cccs3)Cc3nnnn3Cc3ccccc3)c(=O)[nH]c2c1` was run?
Answer: inconclusive [inhibitor, partial curve]

Question: How did the “activity change, negative = inhibition” value turn out when `CC(/C=N/NC(=O)Cc1cccn1C)=C\c1ccco1` was run?
Answer: inactive: -4.7% [at 46.1 µM]

Question: Which Potency does the source give for `Cc1nc2ccccc2nc1SCC(=O)N1CCC(C)CC1` here?
Answer: inconclusive [activator, partial curve]

Question: How did the Potency turn out when `Oc1ccc(N=Nc2cccc(Cl)c2)cc1C=Nc1ccc(N2CCOCC2)cc1` was run?
Answer: inconclusive [inhibitor, single point]

Question: For `O=C1NC(Nc2nc3ccccc3s2)(C(F)(F)F)C(=O)N1C1CCCCC1` (centres undefined), which Potency is on record?
Answer: inconclusive [inhibitor, partial curve]

Question: How did the “activity change, negative = inhibition” value turn out when `Cc1ccc(-c2nc3ccccc3s2)cc1NC(=S)NC(=O)c1ccccc1` was run?
Answer: inactive: 2.58% [at 46.1 µM]

Question: How did the Potency turn out when `Nc1nonc1-n1nnc(C(=O)N/N=C/c2ccccc2Cl)c1CSc1ccccc1` was run?
Answer: inconclusive [inhibitor, single point]

Question: Which Potency does the source give for `O=c1c2ccccc2n(Cc2cccc(F)c2)c(=O)n1C1CCCC1` here?
Answer: inconclusive [inhibitor, single point]

Question: With `CCOc1[nH]n(-c2ccccc2)c(=O)c1C=Nc1ccc(OC)cc1` as the molecule, how does the “activity change, negative = inhibition” value read?
Answer: inactive: -33.1%

Question: For `O=C(CCc1nc2ccccc2[nH]c1=O)OCc1ccc(S(=O)(=O)N2CCOCC2)cc1`, which Potency is on record?
Answer: inconclusive [inhibitor, single point]

Question: With `O=C(CCl)Nc1ccccc1Sc1ccc(Cl)cc1` as the molecule, how does the Potency read?
Answer: inconclusive [inhibitor, single point]

Question: For `CCOc1ccc(Br)cc1S(=O)(=O)Nc1ccccc1N1CCOCC1`, which Potency is on record?
Answer: inconclusive [inhibitor, partial curve]

Question: Which Potency does the source give for `COC(=O)c1ccc(CSc2nc3ccccc3c(=O)n2-c2ccc(OC)c(OC)c2)o1` here?
Answer: inconclusive [inhibitor, single point]

Question: Which Potency does the source give for `CCOc1ccccc1/C=c1\sc2ncnn2c1=O` here?
Answer: inconclusive [inhibitor, single point]

Question: With `COc1ccc(-c2nc(-c3ccc4c(c3)OCO4)[nH]c2-c2ccc(OC)cc2)cc1` as the molecule, how does the Potency read?
Answer: inconclusive [inhibitor, single point]

Question: How did the “activity change, negative = inhibition” value turn out when `CCOC(=O)N1CCN(c2ccc(N3C(=O)CCCC3=O)cc2[N+](=O)[O-])CC1` was run?
Answer: inactive: 19.4%

Question: For `CCOc1ccc(NC(=O)C(Cc2ccccc2)N2C(=O)c3cccc4cccc(c34)C2=O)cc1` (centres undefined), which Potency is on record?
Answer: inconclusive [activator, single point]

Question: For `Cc1ccc2nc(/C(C#N)=C\c3ccc(N4CCCCC4)c([N+](=O)[O-])c3)[nH]c2c1`, which Potency is on record?
Answer: inconclusive [inhibitor, single point]

Question: For `Nc1ccc2c(c1)-c1ccccc1S(=O)(=O)N2`, which Potency is on record?
Answer: inconclusive [inhibitor, partial curve]

Question: `CC(CC(=O)Nc1ncc([N+](=O)[O-])s1)c1ccccc1` (centres undefined) was tested. Which Potency did it give?
Answer: inconclusive [activator, single point]

Question: How did the Potency turn out when `COc1ccc(OC)c(S(=O)(=O)n2cnc3cc(C)c(C)cc32)c1` was run?
Answer: inconclusive [inhibitor, full curve, poor fit]

Question: With `O=C(CC12CC3CC(CC(C3)C1)C2)NC(=S)NCc1ccco1` as the molecule, how does the Potency read?
Answer: inconclusive [inhibitor, single point]

Question: How did the Potency turn out when `CCCn1nnnc1SCC(=O)Nc1nnc(CC)s1` was run?
Answer: inconclusive [inhibitor, single point]

Question: For `O=C(O)/C=C/C(=O)NCCc1cccc(Cl)c1`, which “activity change, negative = inhibition” value is on record?
Answer: inactive: -7.63%

Question: Which “activity change, negative = inhibition” value does the source give for `COc1ccc(-c2n[nH]c(=S)o2)c(OC)c1` here?
Answer: inactive: -8.45% [at 46.1 µM]

Question: Which Potency does the source give for `CCN1CC2=C(OC(N)=C(C#N)C2c2cccs2)/C(=C\c2cccs2)C1` (centres undefined) here?
Answer: inconclusive [inhibitor, single point]

Question: Which Potency does the source give for `CCC(c1nnnn1Cc1ccco1)N(Cc1ccccc1OC)Cc1cc2cc(C)ccc2[nH]c1=O` (centres undefined) here?
Answer: inconclusive [inhibitor, partial curve]

Question: `COc1ccc(-c2cn3c(C)c(C(=O)Nc4cc(NC(C)=O)ccc4OC)sc3n2)cc1` was tested. Which Potency did it give?
Answer: inconclusive [inhibitor, single point]

Question: Which Potency does the source give for `CCOC(=O)C1=C(C)N=c2s/c(=C3/C(=O)Nc4ccccc43)c(=O)n2C1c1ccc(C)cc1` (centres undefined) here?
Answer: inconclusive [inhibitor, partial curve, poor fit]

Question: How did the Potency turn out when `CCCc1nn(C(=O)c2ccccc2)c2c1C(=O)CC(C)(C)C2` was run?
Answer: inconclusive [inhibitor, single point]

Question: How did the Potency turn out when `O=C(CC(c1ccccc1)c1ccccc1)Nc1ccc(Cl)cn1` was run?
Answer: active: 10 µM

Question: Which Potency does the source give for `CCN(CC)c1ccc(/C=N/NC(=O)c2ccoc2C)c(O)c1` here?
Answer: inconclusive [inhibitor, single point]

Question: With `CCOP(=O)(c1ccccc1)c1nc(-c2ccccc2C)oc1N1CCCCC1` (centres undefined) as the molecule, how does the Potency read?
Answer: active: 10 µM

Question: `Cc1ccccc1-c1noc(-c2ccc(O)cc2)n1` was tested. Which Potency did it give?
Answer: inconclusive [inhibitor, single point]

Question: `Cc1cc(C)nc(NC(=O)C(c2ccccc2)c2ccccc2)c1` was tested. Which “activity change, negative = inhibition” value did it give?
Answer: inactive: -22.2%

Question: `Cc1nc2ccc(N=NC3=C(O)CCCC3=O)cc2s1` was tested. Which “activity change, negative = inhibition” value did it give?
Answer: inactive: -16.9% [at 46.1 µM]

Question: How did the Potency turn out when `O=C(NCc1ccco1)c1cnn2c(C(F)(F)F)cc(-c3ccccc3)nc12` was run?
Answer: inconclusive [inhibitor, partial curve]

Question: `Brc1ccc(CSc2nnc(Cc3c[nH]c4ccccc34)o2)cc1` was tested. Which Potency did it give?
Answer: inconclusive [inhibitor, single point]

Question: With `Cc1ccc(O)c(-c2cc(-c3cccc(F)c3)n[nH]2)c1` as the molecule, how does the Potency read?
Answer: inconclusive [inhibitor, single point]

Question: For `Cc1ccc(-n2nnnc2-c2cnc(-c3cccnc3)nc2C(F)(F)F)cc1`, which Potency is on record?
Answer: inconclusive [inhibitor, single point]

Question: How did the Potency turn out when `CCn1c(CNc2ccc(Cl)cc2)nnc1SCc1ccc(Cl)cc1` was run?
Answer: inconclusive [inhibitor, single point]

Question: Which “activity change, negative = inhibition” value does the source give for `CC(C)Cn1[nH]c2c3c(ccc2c1=O)C(=O)c1ccccc1C3=O` here?
Answer: inactive: -25.2% [at 46.1 µM]

Question: `CCN(CCNC(=O)C1CCN(S(=O)(=O)c2cccc3nsnc23)CC1)c1ccccc1` was tested. Which Potency did it give?
Answer: inconclusive [inhibitor, partial curve]

Question: Which Potency does the source give for `COc1ccc(C(=O)OC(C(=O)c2ccc(C)cc2)c2ccccc2)cc1` (centres undefined) here?
Answer: inconclusive [inhibitor, single point]

Question: `S=c1[nH]nc(-c2ccccc2)n1Cc1ccccc1` was tested. Which “activity change, negative = inhibition” value did it give?
Answer: inactive: -8.51% [at 46.1 µM]

Question: For `CC1COC(Cn2c3ccccc3c3ccccc32)O1` (centres undefined), which “activity change, negative = inhibition” value is on record?
Answer: inactive: -20.3%

Question: Which “activity change, negative = inhibition” value does the source give for `Cc1cccc(N=Nc2ccc(O)c3ncccc23)c1` here?
Answer: inactive: -3.95%

Question: For `c1csc(-c2noc(COc3ccc4c(c3)CCCC4)n2)c1`, which Potency is on record?
Answer: inconclusive [inhibitor, single point]

Question: With `Cc1cc(NC(=O)c2cnn3c(C(F)F)cc(C4CC4)nc23)no1` as the molecule, how does the “activity change, negative = inhibition” value read?
Answer: inactive: -12.9% [at 46.1 µM]

Question: `Cc1cccn2cc(CCNS(=O)(=O)c3cccc([N+](=O)[O-])c3)nc12` was tested. Which “activity change, negative = inhibition” value did it give?
Answer: inactive: 4.97%

Question: For `Cc1ccccc1Cn1ccc(NC(=O)c2cnn3c2NC(c2ccccc2)CC3C(F)(F)F)n1` (centres undefined), which Potency is on record?
Answer: inconclusive [inhibitor, single point]

Question: `CC(=O)CSc1nc(N)c(C#N)c(-c2cccs2)c1C#N` was tested. Which “activity change, negative = inhibition” value did it give?
Answer: inactive: 2.04% [at 46.1 µM]

Question: Which “activity change, negative = inhibition” value does the source give for `CCOC(=O)C1=C(N)N2C(=O)C(C)SC2=C(C(=O)OC)C1c1cccc(OC)c1` (centres undefined) here?
Answer: inactive: -14.1% [at 46.1 µM]

Question: Which “activity change, negative = inhibition” value does the source give for `COc1cccc(/C=N/NC(=O)CNC(=O)CCc2ccccc2)c1O` here?
Answer: inactive: 47.8%

Question: How did the “activity change, negative = inhibition” value turn out when `Cc1cccc(NC(=S)NC2CC3C=CC2C3)c1` (centres undefined) was run?
Answer: inactive: -7.74%

Question: How did the Potency turn out when `CCOC(=O)CSC1=C(C#N)C(c2ccccc2OCC)C(C#N)C(=O)N1` (centres undefined) was run?
Answer: inconclusive [activator, single point]

Question: Which “activity change, negative = inhibition” value does the source give for `CC(=O)Nc1cccc(C(=O)/C=C/c2ccc(/C=C/C(=O)c3cccc(NC(C)=O)c3)cc2)c1` here?
Answer: inactive: -16.2%

Question: For `Cc1c(C(=O)NCCSCc2cccc(C(F)(F)F)c2)cnn1-c1ccc(F)cc1`, which Potency is on record?
Answer: inconclusive [activator, single point]

Question: Which Potency does the source give for `Cc1cc2nc(-c3ccc(SCC(=O)N4CCc5ccccc54)nc3)[nH]c2cc1C` here?
Answer: inconclusive [inhibitor, single point]

Question: `COC(=O)c1sccc1NC(=O)c1cc(-c2ccc(C)cc2)nc2ccccc12` was tested. Which Potency did it give?
Answer: inconclusive [inhibitor, single point]

Question: For `O=C1CN(C(=O)c2ccc(Br)o2)C(c2ccccc2)c2cc(Br)ccc2N1` (centres undefined), which Potency is on record?
Answer: inconclusive [inhibitor, single point]

Question: For `COc1cc(OC)cc(C(=O)NC2CCN(C(=O)N3c4ccccc4Sc4ccccc43)CC2)c1`, which Potency is on record?
Answer: inconclusive [inhibitor, single point]

Question: With `COC(=O)CSc1nc(N)c(C#N)c(-c2ccco2)c1C#N` as the molecule, how does the Potency read?
Answer: inconclusive [activator, single point]

Question: How did the Potency turn out when `O=C(c1ccco1)N1CCN(C(c2ccc(F)cc2)c2nnnn2Cc2cccs2)CC1` (centres undefined) was run?
Answer: inconclusive [inhibitor, single point]
